Values of other authors in patent publication US20110020434A1, “NA[…]-[…] COMPOSITIONS” (priority 2005, published 2011).

Details: Loehr et al. 1968; cited from earlier work

For arsenous acid [H3AsO3], the pKa is listed as 9.3.
